The other results are listed elsewhere or left out. The full chains were built here from the parent and the listed change. Values near 0.05 are background.
B1: TEV protease; numbered along this chain (parent)
chain: MGESLFKGPRDYNPISSSICHLTNESDGHTTSLYGIGFGPFIITNKHLFRRNNGTLVVQSLHGVFKVKDTTTLQQHLVDGRDMIIIRMPKDFPPFPQKLKFREPQREERICLVTTNFQTKSMSSMVSDTSCTFPSGDGIFWKHWIQTKDGQCGSPLVSTRDGFIVGIHSASNFTNTNNYFTSVPKNFMELLTNQEAQQWVSGWRLNADSVLWGGHKVFMVKPEEPFQPVKEATQL

Variants of: B1
Assay: raw area under fraction-flipped curve 0-4 h after induction (AUC4h, not background-subtracted), DNA-recorder readout of cleavage of the substrate (dimensionless); higher = more cleavage of the substrate by the protease variant
Settings: temperature: 34 °C; time window: 0-4 h after rhamnose induction
Procedure: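 In vivo DNA recorder in E. coli TOP10(DE3) ΔrhaA at 34 °C. Each TEVp single-site mutant (parent TEVp 0) is paired with a single-site variant of the 7-mer TEVs (canonical ENLYFQ|S). The substrate sits between flexible linkers in a Bxb1-sfGFP-TEVs-SsrA fusion, so cleavage stabilises Bxb1 and speeds flipping of a recombination array, read by NGS. The value is the raw area under the fraction-flipped curve over 0-4 h after rhamnose induction (AUC4h), with ≥20 reads per time point. It is not background-subtracted; inactive controls average about 0.047.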
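Note: Bxb1 expression induced with 0.2% (w/v) L-rhamnose at OD600 near 0.5, cultures sampled hourly, flipped fraction per protease–substrate barcode pair counted by paired-end Illumina sequencing.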

Row | Variant | area with substrate ENAYFQS | area with substrate ENCYFQS | area with substrate ENDYFQS | area with substrate ENEYFQS | area with substrate ENFYFQS | area with substrate ENGYFQS | area with substrate ENHYFQS | area with substrate ENIYFQS | area with substrate ENKYFQS | area with substrate ENMYFQS | area with substrate ENNYFQS | area with substrate ENPYFQS | area with substrate ENQYFQS | area with substrate ENRYFQS | area with substrate ENSYFQS | area with substrate ENTYFQS | area with substrate ENVYFQS | area with substrate ENYYFQS | area with substrate ENWYFQS
1 | P40S | 0.0547 | 0.0688 | 0.071 | 0.0594 | 0.0607 | 0.0576 | 0.0629 | 0.0906 | 0.0564 | 0.0804 | 0.0526 | 0.0817 | 0.0562 | 0.0564 | 0.0583 | 0.0582 | 0.0757 | – | –
2 | P40I | 0.0519 | – | 0.0607 | 0.0535 | 0.0642 | – | 0.0668 | 0.0432 | 0.0594 | 0.0811 | 0.0321 | 0.059 | 0.0619 | – | 0.06 | 0.0537 | 0.0554 | 0.0791 | –
3 | P40H | 0.0847 | 0.0595 | 0.0708 | 0.0573 | 0.0647 | 0.0615 | 0.0536 | – | 0.0569 | 0.0813 | 0.0387 | 0.0591 | 0.0604 | – | 0.069 | 0.0715 | 0.076 | – | 0.0453
4 | P40F | 0.051 | 0.0572 | 0.0599 | 0.0678 | 0.049 | 0.0587 | 0.0491 | 0.102 | 0.048 | 0.0585 | 0.0503 | 0.0554 | 0.058 | 0.0592 | 0.0544 | 0.0614 | 0.0689 | – | –
5 | P40R | 0.0803 | – | – | 0.0635 | 0.0681 | 0.0633 | 0.0706 | 0.106 | – | – | 0.0591 | 0.07 | 0.0518 | 0.0609 | 0.0605 | – | 0.077 | – | 0.0533
6 | P40L | 0.0623 | 0.0622 | 0.0521 | 0.0567 | 0.0451 | 0.0446 | – | 0.129 | – | – | 0.0495 | 0.0685 | 0.0494 | 0.0466 | 0.0491 | 0.0415 | 0.0822 | 0.0431 | 0.0501
7 | P40T | 0.0563 | 0.0611 | 0.0639 | 0.0567 | 0.0809 | 0.0654 | 0.0614 | – | – | 0.108 | 0.0646 | – | 0.0533 | 0.06 | 0.0755 | 0.0624 | 0.0742 | – | –
8 | P40G | 0.0592 | 0.0498 | 0.0449 | 0.0684 | – | – | 0.0602 | – | – | – | 0.059 | 0.0566 | 0.0606 | 0.0601 | 0.0677 | 0.0579 | 0.0686 | – | –
9 | P40C | 0.0651 | 0.0629 | 0.0764 | 0.0582 | 0.074 | 0.0532 | 0.0452 | 0.102 | 0.0654 | 0.0755 | 0.0495 | 0.0374 | 0.0619 | 0.0603 | 0.0563 | 0.0536 | 0.0796 | – | –
10 | P40K | 0.0669 | – | 0.0633 | 0.0575 | 0.0626 | 0.0546 | 0.0645 | 0.0914 | – | 0.0781 | 0.0556 | 0.0553 | 0.0631 | – | 0.0424 | 0.072 | 0.0794 | 0.0385 | 0.0338
11 | P40D | 0.0712 | – | 0.0511 | 0.0648 | 0.0563 | 0.0626 | 0.0479 | – | 0.0629 | 0.0834 | – | – | 0.0893 | 0.0722 | – | – | – | 0.0518 | 0.054
12 | S32L | 0.0568 | 0.0598 | 0.0593 | 0.0424 | 0.0559 | – | 0.0523 | 0.12 | 0.0906 | – | 0.0681 | 0.0515 | – | – | 0.0623 | 0.0472 | 0.0826 | 0.0508 | –
13 | S32Y | 0.0537 | 0.0587 | 0.057 | 0.0609 | – | 0.0663 | 0.0533 | 0.112 | 0.058 | – | – | 0.0523 | 0.057 | – | 0.0612 | 0.0665 | 0.0841 | – | 0.0051
14 | S32P | 0.0652 | 0.0557 | 0.0608 | 0.0571 | 0.0564 | – | 0.0498 | – | 0.0543 | 0.0701 | 0.0554 | 0.0488 | 0.0542 | – | 0.0593 | 0.0632 | 0.0589 | 0.0525 | –
15 | S32M | 0.0924 | 0.0719 | 0.0665 | 0.0678 | – | – | – | – | – | – | 0.073 | 0.0588 | 0.0467 | – | 0.0443 | 0.0621 | – | 0.0544 | –
16 | S32W | 0.0551 | 0.0599 | 0.0606 | 0.0457 | – | – | 0.0738 | 0.11 | – | 0.0884 | 0.0705 | 0.0518 | 0.0534 | 0.0605 | 0.0584 | 0.0681 | 0.0679 | 0.0577 | –
17 | S32D | 0.0542 | 0.0568 | 0.0594 | – | 0.056 | – | – | 0.0839 | 0.056 | – | 0.0529 | 0.0568 | 0.0606 | 0.0576 | 0.0622 | 0.0565 | 0.0643 | 0.0603 | –
18 | S32Q | 0.0477 | 0.0615 | 0.0549 | 0.0559 | 0.0463 | 0.0625 | 0.0625 | 0.0782 | 0.0468 | 0.101 | – | 0.0698 | 0.0609 | 0.0758 | – | 0.0525 | 0.0154 | – | –
19 | S32R | 0.0617 | 0.0663 | 0.0626 | 0.064 | 0.0701 | 0.0599 | 0.0725 | 0.0942 | 0.0859 | – | 0.0649 | 0.0639 | 0.0557 | – | 0.0595 | 0.0667 | 0.0748 | 0.0497 | –
20 | S32G | 0.0537 | 0.0634 | 0.0578 | 0.0549 | 0.0404 | – | – | – | – | 0.0602 | 0.0793 | – | 0.0646 | 0.05 | 0.0541 | 0.0537 | 0.0688 | 0.0368 | 0.0566
21 | G39A | 0.0509 | 0.0394 | 0.0529 | 0.0441 | – | 0.0573 | 0.0386 | 0.0526 | 0.0531 | – | 0.019 | 0.04 | 0.0433 | – | 0.0434 | 0.0352 | 0.0486 | – | –
22 | T44F | 0.0602 | 0.0576 | 0.0525 | 0.0575 | 0.0513 | 0.0397 | 0.0592 | 0.0497 | – | 0.0588 | 0.0598 | 0.0452 | 0.0462 | – | 0.0542 | 0.039 | 0.0536 | 0.0483 | 0.038
23 | T44A | 0.0526 | 0.0701 | 0.0668 | 0.0631 | 0.0551 | 0.0544 | 0.0593 | – | – | 0.0716 | 0.0542 | – | 0.0565 | 0.0605 | 0.0544 | 0.0609 | 0.0656 | 0.0623 | –
24 | K46S | 0.0628 | 0.0614 | 0.0709 | 0.062 | 0.0605 | 0.0552 | 0.0104 | 0.107 | 0.102 | 0.0657 | 0.0561 | – | 0.0621 | 0.0704 | 0.0762 | 0.0647 | 0.0566 | 0.0353 | 0.0567

— the supplement of paper PMC12217912
